Among all 310,000 compounds or so, about 2,200 (0.71%) showed an effect of 50% or more. Effects have a minus sign here. Some of the results follow.

human ether-à-go-go-related gene (hERG) potassium channel, sequence (Q12809 whole entry, looked up): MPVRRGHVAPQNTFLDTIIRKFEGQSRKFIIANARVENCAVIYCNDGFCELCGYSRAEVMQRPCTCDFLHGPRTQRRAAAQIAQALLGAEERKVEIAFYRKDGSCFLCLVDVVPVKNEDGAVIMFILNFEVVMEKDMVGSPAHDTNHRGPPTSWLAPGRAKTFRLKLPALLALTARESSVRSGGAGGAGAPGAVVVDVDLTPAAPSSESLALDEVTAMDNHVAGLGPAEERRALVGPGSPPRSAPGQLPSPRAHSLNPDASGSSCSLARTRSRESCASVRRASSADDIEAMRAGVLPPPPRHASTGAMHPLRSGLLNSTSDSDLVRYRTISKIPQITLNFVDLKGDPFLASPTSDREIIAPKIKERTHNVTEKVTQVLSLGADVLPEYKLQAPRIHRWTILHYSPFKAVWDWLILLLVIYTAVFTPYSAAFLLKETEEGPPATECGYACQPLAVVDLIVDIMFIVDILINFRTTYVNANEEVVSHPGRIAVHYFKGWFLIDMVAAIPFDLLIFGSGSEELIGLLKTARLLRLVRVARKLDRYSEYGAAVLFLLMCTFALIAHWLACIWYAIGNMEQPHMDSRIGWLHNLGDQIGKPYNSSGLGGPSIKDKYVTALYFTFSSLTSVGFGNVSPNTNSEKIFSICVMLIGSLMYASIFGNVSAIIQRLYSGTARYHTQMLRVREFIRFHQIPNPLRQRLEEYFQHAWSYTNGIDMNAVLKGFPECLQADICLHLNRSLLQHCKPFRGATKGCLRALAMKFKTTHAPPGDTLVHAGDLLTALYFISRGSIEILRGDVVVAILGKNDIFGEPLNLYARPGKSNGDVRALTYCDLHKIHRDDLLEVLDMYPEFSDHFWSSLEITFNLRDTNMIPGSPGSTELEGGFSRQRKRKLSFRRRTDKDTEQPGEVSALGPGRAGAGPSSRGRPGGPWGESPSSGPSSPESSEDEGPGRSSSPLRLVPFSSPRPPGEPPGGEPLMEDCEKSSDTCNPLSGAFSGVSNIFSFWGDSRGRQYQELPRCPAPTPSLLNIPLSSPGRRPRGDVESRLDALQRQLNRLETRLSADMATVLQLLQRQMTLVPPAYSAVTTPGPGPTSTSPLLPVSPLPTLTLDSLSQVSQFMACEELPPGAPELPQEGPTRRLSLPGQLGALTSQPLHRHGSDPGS

The experiment addresses human ether-à-go-go-related gene (hERG) potassium channel (human, UniProt Q12809). Description: primary screen, population patch clamp on CHO cells stably expressing hERG.
With `COCc1cc(C)nc2sc(C(=O)N3CCCC3)c(N)c12`, the “hERG current change (%, negative = inhibition) at 1uM” value is given as 9.46%. For `OCCN1CCN(CC#CCC(c2ccccc2)c2ccccc2)CC1` the value was 8.38%; for `CCS(=O)(=O)N1CCN=C1SCc1ccccc1`, 14%. For `CCN1CCN(c2ccc(S(=O)(=O)N3CCOCC3)cc2NC(=O)COc2ccc(F)cc2Cl)CC1` the value was -4.26%; for `COCCN(C(=S)Nc1c(C)cccc1C)C(C)c1cccnc1` (stereo not shown), 13%. In the case of `CCOC(=O)Cn1nc(NC(=O)c2cc(OC)cc(OC)c2)cc1C` it was 7.76%. In the case of `COc1ccc(-n2nc3ccc(NS(C)(=O)=O)cc3n2)cc1Cl`, the “hERG current change (%, negative = inhibition) at 1uM” value came out at 2.73%. In the case of `COCCNC(=O)Cn1cnc([N+](=O)[O-])n1` it was 9.22%. For `CC(Cc1ccccn1)NC(=O)c1ccc(OC2CCN(Cc3ccccn3)CC2)cc1` (stereo not shown) the value was 14.8%; for `O=[N+]([O-])/C(=C\Nc1ccccc1Cl)S(=O)(=O)c1ccccc1`, 6.99%; for `Cc1ccc(C(=O)Nc2c(C(=O)NCc3ccco3)cnn2-c2ccccc2)cc1`, -1.88%. In the case of `CCNC(=O)c1sc(-c2ccccc2)nc1C` it was -8.16%; in that of `Clc1ccc(OCCN2CCOCC2)cc1`, 12.9%; in that of `Cc1ccc(N(C(=O)c2ccco2)C(C(=O)NC2CCCC2)c2cccnc2)cc1C` (stereo not shown), 9.71%. Take `COCCNC(=O)C(c1ccc(C)cc1)N(CCOC)C(=O)CCC(=O)Nc1nccs1` (stereo not shown): the “hERG current change (%, negative = inhibition) at 1uM” value came to 17.7%. In the case of `CC(C)(C)NCCCCOc1ccc(F)cc1` it was 8.56%. For `CCn1cc(C2N3CC4(C)CN2CC(C)(C3)C4=O)c2ccccc21` (stereo not shown) the value was 4.63%; for `Cc1noc(C)c1S(=O)(=O)N1CCC(C(=O)N2CCC(N3CCCCC3)CC2)CC1`, 16.3%; for `CCOC(=O)c1[nH]c(C)c(C(=O)OCC(=O)NC(C)c2ccc(F)cc2)c1C` (stereo not shown), 2.48%.

For `CC(C)(CSc1nncn1N)NS(=O)(=O)c1ccc(Cl)cc1`, the “hERG current change (%, negative = inhibition) at 1uM” value was 13.5%. As for `Cc1cc(C(=O)NNC(=O)c2ccc(S(=O)(=O)N(C)C)cc2)c(C)o1`, the “hERG current change (%, negative = inhibition) at 1uM” value is recorded as 23.4%. As to `O=C(CN1C(=O)NC2(CCc3ccccc32)C1=O)NCCc1ccccc1` (stereo not shown), the “hERG current change (%, negative = inhibition) at 1uM” value was 3.93%.

For the compound `CCOc1ccc(S(=O)(=O)N(CC)CC(=O)NCc2ccco2)cc1C`, the “hERG current change (%, negative = inhibition) at 1uM” value is on record as 11.5%.

On to `Cc1ccc(F)c(NC(=O)c2cncn2-c2ccccc2)c1`, for which the “hERG current change (%, negative = inhibition) at 1uM” value is given as 9.29%. In the case of `CC1CN(C(=O)c2ccc3c(c2)OCO3)OC(c2ccccc2)O1` (stereo not shown) it was 8.87%; in that of `CCn1c(C)nc2cc(C(=O)N/N=C/c3cccc(O)c3O)ccc21`, 11.3%; in that of `Nc1nc(-c2ccccn2)nc(N)c1Cc1ccc(Cl)cc1Cl`, 13.6%.

Take `O=C(Nc1ccc(Cl)c(Cl)c1)Nc1cc(S(=O)(=O)N2CCOCC2)ccc1N1CCCC1`: the “hERG current change (%, negative = inhibition) at 1uM” value is listed as 1.63%. For `Clc1cccc(Cl)c1COn1nnc2ccccc21` the value was 6.07%; for `CCn1c(=O)c(C(=O)Nc2nc3ccccc3[nH]2)c(O)c2ccccc21`, -0.0991%; for `CSc1ccc(CCNC(=O)c2cccc3c2C(=O)N(C2CCCCC2)C3)cc1`, 4.25%. For `Nc1c(Cl)cc(-c2csc(N3CCCC3c3nc4cc(Cl)c(N5CCCCC5)cc4n3CCCO)n2)cc1Cl` (stereo not shown) the value was 12.1%; for `NC(=O)c1ccc(NC(=O)CNC(c2ccccc2)c2ccccc2)cc1`, 7.85%. In the case of `O=C(COC(=O)c1ccco1)Nc1ccc2c(c1)OCCO2` it was 13%.

In the case of `CCOCCCN(C)C1CCN(C(=O)c2oc3ccccc3c2NC(=O)Cc2ccc(F)cc2)CC1`, the “hERG current change (%, negative = inhibition) at 1uM” value was -85.2%.

As to `CC(C)CN(CC(C)C)C(=O)Nc1ccc(F)cc1F`, the “hERG current change (%, negative = inhibition) at 1uM” value stood at 15.6%. For `Cn1c2ccccc2c(=O)c2c(=O)n(Cc3ccco3)c(-c3ccc(C(C)(C)C)cc3)nc21` the value was 13.4%; for `COc1ccc(-c2cc(C3CCN(Cc4cccc(C(F)(F)F)c4)CC3)[nH]n2)cc1`, -13%; for `Cc1nc(C(F)(F)F)ccc1C(=O)NN1CCOCC1`, 22.6%.

Regarding `COc1ccc(N(C(=O)c2cccnc2)S(=O)(=O)c2ccc(OC)c(OC)c2)cc1`, the “hERG current change (%, negative = inhibition) at 1uM” value is on record as -15.3%.

With `COCCCNC(=O)CS(=O)(=O)Cc1nc(-c2ccccc2C)oc1C`, the “hERG current change (%, negative = inhibition) at 1uM” value worked out at 13.5%.

On to `COc1cccc2cc(C(=O)NCc3ccc(Cl)cc3)c(=N)oc12`, for which the “hERG current change (%, negative = inhibition) at 1uM” value came out at 14.6%. For `Cc1cccc(OCc2nnc(SCC(=O)N3c4ccccc4Sc4ccc(Cl)cc43)o2)c1` the value was 2.6%.

Regarding `O=C(NCc1ccncc1)c1ccc(S(=O)(=O)Nc2ccccc2)cc1`, the “hERG current change (%, negative = inhibition) at 1uM” value is -7.64%.

As to `CC(C)(C)NC(=O)C(=O)NCCC1=CCCCC1`, the “hERG current change (%, negative = inhibition) at 1uM” value is reported as 9.35%.

With `Cc1ccc(C(=O)Nc2ccc3ccccc3c2)cc1`, the “hERG current change (%, negative = inhibition) at 1uM” value was 11.2%. With `Cc1ccc2[nH]c(C(=O)O)c(NC(=O)c3ccccc3[N+](=O)[O-])c2c1`, the “hERG current change (%, negative = inhibition) at 1uM” value is -2.15%. For `COc1cccc(NC(=O)Cc2nc(-c3ccccc3)sc2-c2ccc(C)cc2)c1` the value was 9.07%. For `COc1ccc(C(=N/O)/C(=N/O)c2ccc(OC)cc2)cc1` the value was 5.44%. Turning to `Cc1ccc(C(=O)c2cc([N+](=O)[O-])ccc2N2CCCCC2)cc1C`, the “hERG current change (%, negative = inhibition) at 1uM” value is recorded as 14.8%.

As for `Cn1c(C(C)(O)C(O)c2ccccc2)nc2ccccc21` (stereo not shown), the “hERG current change (%, negative = inhibition) at 1uM” value is given as -7.82%.

For `Cc1ccc2cccc(Oc3nnnn3-c3ccccc3)c2n1`, the “hERG current change (%, negative = inhibition) at 1uM” value was 17.6%.

On to `CCCNC(=O)Cn1cc(S(=O)(=O)N2CCCC2)c(S(=O)(=O)N2CCCC2)c1`, for which the “hERG current change (%, negative = inhibition) at 1uM” value is listed as 18.9%.

As for `O=C(CN1C(=O)C2CC=CCC2C1=O)Nc1ccc(F)cc1F` (stereo not shown), the “hERG current change (%, negative = inhibition) at 1uM” value worked out at 6.22%.

On to `COc1ccc(-n2nc(C(=O)NCC(=O)NCCCN3CC(C)CC(C)C3)c3ccccc3c2=O)cc1OC` (stereo not shown), for which the “hERG current change (%, negative = inhibition) at 1uM” value is listed as -7.45%.

Consider `O=C(C[n+]1cccc2ccccc21)c1ccc(NC(=O)c2ccccc2)cc1.[Br-]`, for which the “hERG current change (%, negative = inhibition) at 1uM” value is recorded as -1.79%. In the case of `C[N+](C)(C)C[C@H](O)CC(=O)O.[Cl-]` it was 17.5%; in that of `CCS(=O)(=O)NCc1nnc2n1-c1ccc(Br)cc1C(c1ccccc1Cl)=NC2`, -2.67%; in that of `COc1ccc(CNc2nc(NCc3ccc(OC)cc3)c3[nH]cnc3n2)cc1`, 15.7%. Regarding `CC1(C)CC(=O)C(C(O)c2ccc([N+](=O)[O-])cc2)C(C)(C)N1` (stereo not shown), the “hERG current change (%, negative = inhibition) at 1uM” value turned out to be 13.4%.

On to `Cc1nnc(SCC(=O)NCc2ccco2)[nH]c1=O`, for which the “hERG current change (%, negative = inhibition) at 1uM” value is -1.58%. For `CC(=O)Nc1ccc(OC(=O)c2ccccc2N)cc1` the value was -12.7%; for `CC(=O)Oc1ccc(C(=O)Nc2ccccc2C(=O)NCC(C)C)cc1`, 8.85%; for `Cc1ccc(C(=O)N/C(=C\c2ccc(Cl)cc2)C(=O)NCCCN2CCOCC2)cc1`, -78.6%. In the case of `CC(SC1CCCC1)C(=O)NC(C)(C#N)C(C)C` (stereo not shown) it was 4.93%; in that of `COC(=O)C(C)n1cnc2c(nnn2-c2ccc(C)cc2)c1=O` (stereo not shown), 2.72%. For `CC(=O)/C(C(=N)N1CCN(Cc2ccccc2)CC1)=C(\C)O` the value was 12.1%; for `CCn1cc(S(=O)(=O)NC2CCCCC2)cn1`, -4.57%; for `O=C(COC(=O)c1cc(S(=O)(=O)N2CCCCC2)ccc1N1CCOCC1)c1ccc(Cl)cc1`, 9.28%.

As for `Cc1ccc(CNC(=O)CCNC(=O)c2ccco2)cc1`, the “hERG current change (%, negative = inhibition) at 1uM” value was determined as 10.5%. For the compound `COc1ccc(NC2=C(C)C(=O)CC2)cc1`, the “hERG current change (%, negative = inhibition) at 1uM” value was determined as 12.9%.

For the compound `CCCC(C(=O)N(C)CC(=O)Nc1ccc(N2CCOCC2)cc1)c1ccccc1` (stereo not shown), the “hERG current change (%, negative = inhibition) at 1uM” value is -0.231%. For `O=C(COC(=O)c1nc(Cl)ccc1Cl)NC1CCCCCC1` the value was -4%; for `O=C(c1cc(N2CCCCC2)nc2ccccc12)N1CCOCC1`, 2.08%. Take `Cc1cccc(NC(=O)c2ccc([N+](=O)[O-])cc2Cl)n1`: the “hERG current change (%, negative = inhibition) at 1uM” value amounted to 1.34%.

Turning to `Cc1cc2c(cc1C)N(C(=O)CN1C(=O)c3ccccc3C1=O)C(C)(C)c1ssc(=S)c1-2`, the “hERG current change (%, negative = inhibition) at 1uM” value was determined as 3.55%. As for `COc1cccc(-c2cc(C(=O)Nc3cc(C)on3)no2)c1`, the “hERG current change (%, negative = inhibition) at 1uM” value stood at 1.21%.

Regarding `CC(=O)c1cc2c(cc1N/C(=N/S(=O)(=O)c1ccccc1)c1ccc(Cl)cc1)OCO2`, the “hERG current change (%, negative = inhibition) at 1uM” value came out at 0.562%. In the case of `Cc1cc(NC(=O)c2ccc(S(=O)(=O)N3CCc4ccccc43)cc2)no1` it was 7.02%; in that of `COc1ccc(N(CCCN2C(=O)c3cccc4cccc(c34)C2=O)C(=O)c2ccncc2)cc1`, 9.23%. For `CC1(C)OC(=O)N(c2ccccn2)C1(C)O` (stereo not shown) the value was 14.4%; for `CC(c1nccs1)N(C)C(=O)c1ccc(OC2CCN(CCc3ccccc3)CC2)cc1` (stereo not shown), -23.8%. In the case of `O=C(CN1CCCCC1)Nc1scc2c1c(=O)oc1ccccc12` it was 13.3%.

For `Oc1ccccc1Nc1nc(-c2ccccc2O)nc2ccccc12`, the “hERG current change (%, negative = inhibition) at 1uM” value was 11.3%.

For the compound `COc1ccc(CNC(=O)CN(C(=O)c2csnn2)c2cccc(F)c2)cc1`, the “hERG current change (%, negative = inhibition) at 1uM” value is listed as 7.2%. For `CCOC(=O)C(Sc1nnc(-c2ccncc2)o1)C(C)=O` (stereo not shown) the value was 22.1%; for `CCN1CCN(C(=O)CCCCCn2c(=O)[nH]c3cc(C(=O)OC)ccc3c2=O)CC1`, 12.4%; for `CN(C)C(CN1C(=O)C2CC=CCC2C1=O)c1cn(C)c2ccccc12.Cl` (stereo not shown), 9.01%.
